These results are taken from PMC4336329 (PLoS ONE, 2015).

The whole screen tested about 310,000 compounds, of which about 14,000 (4.5%) showed an effect of 50% or more. Effects have a minus sign here. Some of the results follow.
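Further: peak tail current of the secondary pulse compared with the same well before compound.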

The assay deals with human ether-à-go-go-related gene (hERG) potassium channel (human, UniProt Q12809). In words: primary screen, population patch clamp on CHO cells stably expressing hERG.
Chain of human ether-à-go-go-related gene (hERG) potassium channel (Q12809 whole entry, looked up): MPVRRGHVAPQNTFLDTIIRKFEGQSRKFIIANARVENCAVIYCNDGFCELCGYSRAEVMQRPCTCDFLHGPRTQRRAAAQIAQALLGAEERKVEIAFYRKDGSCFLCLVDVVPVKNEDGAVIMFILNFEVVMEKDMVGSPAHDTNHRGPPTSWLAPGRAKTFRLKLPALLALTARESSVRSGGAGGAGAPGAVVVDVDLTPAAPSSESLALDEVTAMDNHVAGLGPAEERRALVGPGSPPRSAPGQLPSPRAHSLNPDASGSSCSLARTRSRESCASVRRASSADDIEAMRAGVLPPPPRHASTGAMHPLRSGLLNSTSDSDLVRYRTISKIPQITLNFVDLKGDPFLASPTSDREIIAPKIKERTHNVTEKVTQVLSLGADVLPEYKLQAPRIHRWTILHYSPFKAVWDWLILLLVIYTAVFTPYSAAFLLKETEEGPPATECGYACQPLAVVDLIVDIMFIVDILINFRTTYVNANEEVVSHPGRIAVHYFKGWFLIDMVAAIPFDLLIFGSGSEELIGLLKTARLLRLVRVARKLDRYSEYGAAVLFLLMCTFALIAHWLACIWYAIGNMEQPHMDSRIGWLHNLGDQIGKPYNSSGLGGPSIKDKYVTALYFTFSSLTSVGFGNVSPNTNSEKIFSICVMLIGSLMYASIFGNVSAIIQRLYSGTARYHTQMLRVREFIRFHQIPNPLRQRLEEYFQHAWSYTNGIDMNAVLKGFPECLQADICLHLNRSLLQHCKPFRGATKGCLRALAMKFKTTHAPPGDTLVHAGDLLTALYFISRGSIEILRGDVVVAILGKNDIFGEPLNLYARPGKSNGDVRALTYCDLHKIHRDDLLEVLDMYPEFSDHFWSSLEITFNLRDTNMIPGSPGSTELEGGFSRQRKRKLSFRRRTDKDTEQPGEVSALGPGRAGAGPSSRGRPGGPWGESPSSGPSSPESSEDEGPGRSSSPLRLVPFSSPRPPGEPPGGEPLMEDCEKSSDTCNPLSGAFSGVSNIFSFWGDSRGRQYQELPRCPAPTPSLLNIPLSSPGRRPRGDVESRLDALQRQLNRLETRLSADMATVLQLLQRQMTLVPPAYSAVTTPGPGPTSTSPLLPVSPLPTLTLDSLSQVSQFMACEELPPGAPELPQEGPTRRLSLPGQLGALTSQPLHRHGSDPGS
On to `CS(=O)(=O)N(CCc1ccccc1)CC(=O)N1CCN(c2ccccc2F)CC1`, for which the “hERG current change (%, negative = inhibition) at 10uM” value was -3.17%.
`CC(=Nc1ccc(C)c(C)c1)C1=C(O)CCC1=O`: the “hERG current change (%, negative = inhibition) at 10uM” value was 11.3%.
Consider `CCOc1ccc2nc(NCCNC(=O)C3CC3)c(C)cc2c1`, for which the “hERG current change (%, negative = inhibition) at 10uM” value is on record as -63.7%.
As to `COc1cc(C(=O)Nc2ccc(S(=O)(=O)NC(C)C)cc2)cc(OC)c1OC`, the “hERG current change (%, negative = inhibition) at 10uM” value was -2.49%.
In the case of `Cc1ccc(/C=c2/sc3n(c2=O)CCCN=3)o1`, the “hERG current change (%, negative = inhibition) at 10uM” value is -4.65%.
As for `O=[N+]([O-])c1cccc(-c2nc(-c3cccs3)c(-c3cccs3)[nH]2)c1`, the “hERG current change (%, negative = inhibition) at 10uM” value was found to be 5.61%.
As to `Cc1cc(C)cc(SCc2noc(C(=O)NCC3CC3)c2C(=O)NCC2CC2)c1`, the “hERG current change (%, negative = inhibition) at 10uM” value is -2.39%.
`COc1ccc(S(=O)(=O)N(CC(=O)NCc2cccnc2)C2CCCCC2)cc1OC`: the “hERG current change (%, negative = inhibition) at 10uM” value is given as -12.7%.
As to `CN(Cc1ccc(Cl)cc1Cl)C(=O)CCNC(=O)c1ccco1`, the “hERG current change (%, negative = inhibition) at 10uM” value is -18.2%.
Regarding `CCCn1nnc(NC(=O)c2cc(Br)ccc2OC)n1`, the “hERG current change (%, negative = inhibition) at 10uM” value is on record as -10.4%.
For `Cc1cc(Cl)c(S(=O)(=O)NCC2CCCO2)cc1OCC(N)=O` (stereo not shown), the “hERG current change (%, negative = inhibition) at 10uM” value was 4.47%.
In the case of `CSc1ccccc1NC(=O)CCn1c(=O)oc2ccccc21`, the “hERG current change (%, negative = inhibition) at 10uM” value came out at 14.5%.
In the case of `CC1CCCCC1NC(=O)C1CCC(CNS(=O)(=O)c2cccc3cccnc23)CC1` (stereo not shown), the “hERG current change (%, negative = inhibition) at 10uM” value is on record as 28.8%.
Consider `Cc1ccc(NC(=S)N2CCCCCC2)cc1`, for which the “hERG current change (%, negative = inhibition) at 10uM” value stood at 11.7%.
`CN(C)S(=O)(=O)c1ccc2c(c1)/C(=C/c1cc3c([nH]1)CCCC3)C(=O)N2`: the “hERG current change (%, negative = inhibition) at 10uM” value was -4.62%.
Take `CCOCCc1nnc(NC(=O)CCS(=O)(=O)c2ccccc2)s1`: the “hERG current change (%, negative = inhibition) at 10uM” value was 21.8%.
Consider `COCCN(C(=O)CNC(=O)c1ccco1)C(C(=O)NC1CCCCC1)c1cccs1` (stereo not shown), for which the “hERG current change (%, negative = inhibition) at 10uM” value came to 6.41%.
Regarding `COc1ccccc1N1CCN(/N=C\c2ccc(C)o2)CC1`, the “hERG current change (%, negative = inhibition) at 10uM” value is given as 9.7%.
For `COc1cc2c(cc1OC)C(C(=O)NCc1ccco1)C(c1cccs1)N(C)C2=O` (stereo not shown) the value was -6.5%; for `O=C1C2CCCN2C(c2cccnc2)N1c1ccc(Cl)c(Cl)c1` (stereo not shown), 9.27%; for `CCCCN(C(=O)c1cc2c(s1)CCC2)c1c(N)n(CC(C)C)c(=O)[nH]c1=O`, 2.41%.
Turning to `CN1C(=O)SC(Nc2cccc3ccccc23)C1=O` (stereo not shown), the “hERG current change (%, negative = inhibition) at 10uM” value was found to be 4.57%.
As to `Cc1ccc(NC(=O)c2cc(NC(=O)CCC(=O)O)ccc2N2CCCCC2)cc1`, the “hERG current change (%, negative = inhibition) at 10uM” value was found to be 4.21%.
Regarding `Cc1cc(=O)[nH]c(SCc2cccc3ccccc23)n1`, the “hERG current change (%, negative = inhibition) at 10uM” value is listed as 22%.
For `CCOC(=O)c1ccc(N/C(=N/S(=O)(=O)c2ccccc2)c2ccccc2)cc1` the value was -36.2%.
